B1: SE102, Single-chain relaxin fused to the C-terminus of human IgG1 Fc v.1 (short linker) (Fc fusion)
chain: [not shown - human IgG1 Fc]GGSDSWMEEVIKLCGRELVRAQIAICGMSTWSDAASSHSHSSARQLYSALANKCCHVGCTKRSLARFC
B2: SE103, Single-chain relaxin fused to the C-terminus of human IgG1 Fc v.2 (long linker) (Fc fusion)
chain: [not shown - human IgG1 Fc]GGSGGSGGSGGSDSWMEEVIKLCGRELVRAQIAICGMSTWSDAASSHSHSSARQLYSALANKCCHVGCTKRSLARFC
B3: SE201, Single-chain relaxin fused to the C-terminus of human IgG1 Fc v.1 with N77Q Fc substitution (Fc fusion)
chain: [not shown - human IgG1 Fc with changes]GGSDSWMEEVIKLCGRELVRAQIAICGMSTWSDAASSHSHSSARQLYSALANKCCHVGCTKRSLARFC
B4: SE202, Single-chain relaxin fused to the C-terminus of human IgG1 Fc v.1 with N77Q Fc substitution and AAA linker between relaxin and the Fc (Fc fusion)
chain: [not shown - human IgG1 Fc with changes]AAADSWMEEVIKLCGRELVRAQIAICGMSTWSDAASSHSHSSARQLYSALANKCCHVGCTKRSLARFC
B5: SE203, Single-chain relaxin fused to the C-terminus of human IgG1 Fc v.1 with N77Q Fc substitution and PPP linker between relaxin and the Fc (Fc fusion)
chain: [not shown - human IgG1 Fc with changes]PPPDSWMEEVIKLCGRELVRAQIAICGMSTWSDAASSHSHSSARQLYSALANKCCHVGCTKRSLARFC
B6: SE204, Single-chain relaxin fused to the C-terminus of human IgG1 Fc v.1 with N77Q Fc substitution and M4K relaxin substitution (Fc fusion)
chain: [not shown - human IgG1 Fc with changes]GGSDSWKEEVIKLCGRELVRAQIAICGMSTWSDAASSHSHSSARQLYSALANKCCHVGCTKRSLARFC
B7: SE205, Single-chain relaxin fused to the C-terminus of human IgG1 Fc v.1 with N77Q Fc substitution and M25K relaxin substitution (Fc fusion)
chain: [not shown - human IgG1 Fc with changes]GGSDSWMEEVIKLCGRELVRAQIAICGKSTWSDAASSHSHSSARQLYSALANKCCHVGCTKRSLARFC
B8: SE206, Single-chain relaxin fused to the C-terminus of human IgG1 Fc v.1 with N77Q Fc substitution and W28A relaxin substitution (Fc fusion)
chain: [not shown - human IgG1 Fc with changes]GGSDSWMEEVIKLCGRELVRAQIAICGMSTASDAASSHSHSSARQLYSALANKCCHVGCTKRSLARFC
B9: SE207, Single-chain relaxin fused to the C-terminus of human IgG1 Fc v.1 with N77Q Fc substitution and redesigned single-chain relaxin linker (Fc fusion)
chain: [not shown - human IgG1 Fc with changes]GGSDSWMEEVIKLCGRELVRAQIAICGMSTWSDAAGANANAGARQLYSALANKCCHVGCTKRSLARFC
B10: SE301, Single-chain relaxin fused to the C-terminus of human IgG1 Fc with combined substitutions of SE201, SE204-207 (Fc fusion)
chain: [not shown - human IgG1 Fc with changes]GGSDSWKEEVIKLCGRELVRAQIAICGKSTASDAAGANANAGARQLYSALANKCCHVGCTKRSLARFC
B11: SE302, Single-chain relaxin fused to the C-terminus of human IgG1 Fc with combined substitutions of SE201, 204-207 and no linker between the Fc and … (Fc fusion)
chain: [not shown - human IgG1 Fc with changes]DSWKEEVIKLCGRELVRAQIAICGKSTASDAAGANANAGARQLYSALANKCCHVGCTKRSLARFC
B12: SE101, Single-chain relaxin fused to the N-terminus of human IgG1 Fc (Fc fusion)
chain: DSWMEEVIKLCGRELVRAQIAICGMSTWSDAASSHSHSSARQLYSALANKCCHVGCTKRSLARFCGSGGSG[not shown - human IgG1 Fc]
B13: SE501, Single-chain relaxin fused to the C-terminus of human IgG1 Fc with combined substitutions of SE301 and A264S (Fc fusion)
chain: [not shown - human IgG1 Fc with changes]GGSDSWKEEVIKLCGRELVRSQIAICGKSTASDAAGANANAGARQLYSALANKCCHVGCTKRSLARFC
B14: SE502, Single-chain relaxin fused to the C-terminus of human IgG1 Fc with combined substitutions of SE301 and A264G (Fc fusion)
chain: [not shown - human IgG1 Fc with changes]GGSDSWKEEVIKLCGRELVRGQIAICGKSTASDAAGANANAGARQLYSALANKCCHVGCTKRSLARFC

Each binder was assayed against T1, RXFP1 receptor expressed by transient transfection in HEK293T cells (UniProt Q9HBX9 1-757, limits assumed) (assay: cell-based or functional assay).
T1 sequence (looked up): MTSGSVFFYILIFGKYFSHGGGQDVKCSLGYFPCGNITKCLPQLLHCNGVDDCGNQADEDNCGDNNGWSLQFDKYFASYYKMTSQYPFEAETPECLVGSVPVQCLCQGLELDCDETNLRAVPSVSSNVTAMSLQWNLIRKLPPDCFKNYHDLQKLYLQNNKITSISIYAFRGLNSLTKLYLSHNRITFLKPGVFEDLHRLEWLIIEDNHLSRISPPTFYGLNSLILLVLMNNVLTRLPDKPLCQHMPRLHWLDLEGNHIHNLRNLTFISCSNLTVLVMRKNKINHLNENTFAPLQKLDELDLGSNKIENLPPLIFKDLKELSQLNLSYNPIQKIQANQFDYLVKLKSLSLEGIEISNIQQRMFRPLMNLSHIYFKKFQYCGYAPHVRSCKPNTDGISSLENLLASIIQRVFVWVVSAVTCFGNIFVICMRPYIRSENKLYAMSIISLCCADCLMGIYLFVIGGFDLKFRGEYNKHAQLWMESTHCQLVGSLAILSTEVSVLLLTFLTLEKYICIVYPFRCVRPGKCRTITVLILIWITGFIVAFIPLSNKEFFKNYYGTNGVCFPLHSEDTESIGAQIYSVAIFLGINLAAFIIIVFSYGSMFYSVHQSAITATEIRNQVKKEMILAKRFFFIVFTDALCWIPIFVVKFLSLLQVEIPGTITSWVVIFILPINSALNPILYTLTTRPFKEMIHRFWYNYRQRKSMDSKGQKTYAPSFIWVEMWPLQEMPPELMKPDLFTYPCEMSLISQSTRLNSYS

First: B1
Second: B2
The EC50 of the first is 2.2-fold lower: 8.3 nM for the first, 17.9 nM for the second.

B3 and B4 are within 1.5-fold of each other in EC50: 3.9 nM for the first, 4.2 nM for the second.

Compared with B5, B6 is 4.2-fold lower in EC50: 6.3 nM for the first, 1.5 nM for the second.

Going from B7 to B8, the EC50 falls from 465 nM to 3 nM (160-fold). The second is the more potent here.

B9 and B10 are within 1.5-fold of each other in EC50: 3.9 nM for the first, 4.2 nM for the second.

Compared with B11, B12 is 10-fold higher in EC50: 4.9 nM for the first, 49.4 nM for the second. The first is the more potent here.

Compared with B1, B2 is lower in “Emax (Native two-chain relaxin = 100% Emax)” value: 106% for the first, 93% for the second.

Compared with B3, B4 is higher in “Emax (Native two-chain relaxin = 100% Emax)” value: 102% for the first, 109% for the second.

First: B5
Second: B6
The “Emax (Native two-chain relaxin = 100% Emax)” value of the first is higher: 121% for the first, 115% for the second.

Going from B7 to B8, the “Emax (Native two-chain relaxin = 100% Emax)” value rises from 130% to 135%.

First: B9
Second: B10
The “Emax (Native two-chain relaxin = 100% Emax)” value of the first is higher: 121% for the first, 114% for the second.

Going from B11 to B12, the “Emax (Native two-chain relaxin = 100% Emax)” value rises from 81% to 86%.

Biological target: T1, RXFP1 receptor expressed by transient …
Test: cell-based or functional assay
Remark: another data set of the same source

Compared with B13, B14 is 4-fold higher in EC50: 9.7 nM for the first, 38.6 nM for the second. The first is the more potent here.

These binders were tested against T2, RXFP1 with an N-terminal FLAG tag, transiently transfected in Expi293F cells (UniProt Q9HBX9 1-757, limits assumed) (assay: flow cytometry on Expi293F cells transiently transfected with N-terminal FLAG-tagged RXFP1; detection with anti-human Fc-Alexa 647, MFI against SE301 concentration).
T2 construct: whole, on cells; not shown: N-terminal FLAG tag
T2 sequence (looked up): T1 sequence (looked up)
Protocol: The binding affinity of SE301 was determined by a flow cytometry assay with Expi293F cells transiently transfected with either RXFP1 with an N-terminal FLAG tag or empty vector plasmids. Cell culture and transfection were conducted according to the manufacturer's manual. Cells transfected with RXFP1 or the empty vector control were incubated in a buffer of 20 mM HEPES pH 7.5, 150 mM sodium chloride, 2 mM calcium chloride, and 1% fetal bovine serum for 30 minutes at 4° C. Different concentrations of SE301 were added to the cells and incubated for 1 hour at 4° C. Cells were washed twice with buffer and an M1 antibody labeled with Alexa 488 (M1-488) and a secondary anti-human Fc antibody labeled with Alexa 647 (anti-human Fc-647) were incubated with the cells for 30 minutes at 4° C. The cells were washed once, resuspended in 100 μL buffer, and analyzed by flow cytometry. The cells were gated by forward scatter area versus side scatter area and forward scatter area versus forward scatter height. The cells were then gated according to receptor expression indicated by binding of the M1-488 antibody to the receptor's FLAG tag. Cells in the final gate were plotted according to mean fluorescence intensity of the anti-human Fc-647 antibody to calculate the Kd of SE301.

B10 gave a Kd of 122 nM.

— US20230174610A1 (Harvard, published 2023)
